Test in all cases: glycan array binding signal (z-score within array); higher = stronger binding
Common to all, as to details: glycan notation: IUPAC condensed, linker removed

The target of assay [1] is Gal(b1-4)GlcNAc(b1-2)Man(a1-6)[GlcNAc(b1-2)Man(a1-3)]Man(b1-4)GlcNAc(b1-4)GlcNAc. An outline of the steps: (§1)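 Glycan array binding is given as a within-array Z-score, which can be read as non-binding when negative. The arrays, 3228 of them, came from the Consortium for Functional Glycomics database and were retained only where the protein sequence was available. Z-scores were averaged across arrays of the same protein sequence at different concentrations or buffers and across linkers.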

Assay [2] addresses Gal(b1-4)GlcNAc(b1-2)Man(a1-6)[Man(a1-3)]Man(b1-4)GlcNAc(b1-4)GlcNAc. A digest of the protocol:
as §1

Assay [3] deals with Gal(b1-4)GlcNAc(b1-2)[Gal(b1-4)GlcNAc(b1-4)]Man(a1-3)[Gal(b1-4)GlcNAc(b1-2)Man(a1-6)]Man(b1-4)GlcNAc(b1-4)GlcNAc. An outline of the steps: as §1
In assay [4] the target is Gal(b1-4)GlcNAc(b1-2)[Gal(b1-4)GlcNAc(b1-4)]Man(a1-3)[Gal(b1-4)GlcNAc(b1-2)[Gal(b1-4)GlcNAc(b1-6)]Man(a1-6)]Man(b1-4)GlcNAc(b1-4)GlcNAc. An outline of the steps: as §1
For assay [5], the target named is Gal(b1-4)GlcNAc(b1-2)[Gal(b1-4)GlcNAc(b1-4)]Man(a1-3)[GlcNAc(b1-4)][Gal(b1-4)GlcNAc(b1-2)Man(a1-6)]Man(b1-4)GlcNAc(b1-4)GlcNAc. A digest of the protocol:
as §1

The target in assay [6] is Gal(b1-4)GlcNAc(b1-2)[Gal(b1-4)GlcNAc(b1-4)]Man(a1-3)[GlcNAc(b1-4)][Gal(b1-4)GlcNAc(b1-2)[Gal(b1-4)GlcNAc(b1-6)]Man(a1-6)]Man(b1-4)GlcNAc(b1-4)GlcNAc. An outline of the steps:
as §1

For assay [7], the target named is Gal(b1-4)GlcNAc(b1-2)[Gal(b1-4)GlcNAc(b1-6)]Man(a1-6)[Gal(b1-4)GlcNAc(b1-2)Man(a1-3)]Man(b1-4)GlcNAc(b1-4)GlcNAc. An outline of the steps: as §1
The target of assay [8] is Gal(b1-4)GlcNAc(b1-2)[Gal(b1-4)GlcNAc(b1-6)]Man(a1-6)[Gal(b1-4)GlcNAc(b1-2)Man(a1-3)]Man(b1-4)GlcNAc(b1-4)[Fuc(a1-6)]GlcNAc. An outline of the steps: as §1
For assay [9], the target named is Gal(b1-4)GlcNAc(b1-2)[Gal(b1-4)GlcNAc(b1-6)]Man(a1-6)[GlcNAc(b1-4)][Gal(b1-4)GlcNAc(b1-2)Man(a1-3)]Man(b1-4)GlcNAc(b1-4)GlcNAc. An outline of the steps:
as §1

Assay [10] concerns the target Gal(b1-4)GlcNAc(b1-2)[Gal(b1-4)GlcNAc(b1-6)]Man(a1-6)[GlcNAc(b1-4)][Gal(b1-4)GlcNAc(b1-2)[Gal(b1-4)GlcNAc(b1-4)]Man(a1-3)]Man(b1-4)GlcNAc(b1-4)[Fuc(a1-6)]GlcNAc. An outline of the steps:
as §1

Assay [11] deals with Gal(b1-4)GlcNAc(b1-3)Gal(b1-3)GalNAc. A digest of the protocol: as §1
The target in assay [12] is Gal(b1-4)GlcNAc(b1-3)Gal(b1-3)GlcNAc. An outline of the steps:
as §1

Assay [13] has as its target Gal(b1-4)GlcNAc(b1-3)Gal(b1-4)Glc. A digest of the protocol:
as §1

Assay [14] deals with Gal(b1-4)GlcNAc(b1-3)Gal(b1-4)GlcNAc. An outline of the steps:
as §1

The target of assay [15] is Gal(b1-4)GlcNAc(b1-3)Gal(b1-4)GlcNAc(b1-2)Man(a1-3)[Gal(b1-4)GlcNAc(b1-3)Gal(b1-4)GlcNAc(b1-2)Man(a1-6)]Man(b1-4)GlcNAc(b1-4)GlcNAc. A digest of the protocol: as §1
Assay [16] concerns the target Gal(b1-4)GlcNAc(b1-3)Gal(b1-4)GlcNAc(b1-2)Man(a1-3)[Gal(b1-4)GlcNAc(b1-3)Gal(b1-4)GlcNAc(b1-2)Man(a1-6)]Man(b1-4)GlcNAc(b1-4)[Fuc(a1-6)]GlcNAc. A digest of the protocol: as §1
In assay [17] the target is Gal(b1-4)GlcNAc(b1-3)Gal(b1-4)GlcNAc(b1-2)[Gal(b1-4)GlcNAc(b1-3)Gal(b1-4)GlcNAc(b1-6)]Man(a1-6)[Gal(b1-4)GlcNAc(b1-3)Gal(b1-4)GlcNAc(b1-2)Man(a1-3)]Man(b1-4)GlcNAc(b1-4)GlcNAc. An outline of the steps:
as §1

The target in assay [18] is Gal(b1-4)GlcNAc(b1-3)Gal(b1-4)GlcNAc(b1-2)[Gal(b1-4)GlcNAc(b1-3)Gal(b1-4)GlcNAc(b1-6)]Man(a1-6)[Gal(b1-4)GlcNAc(b1-3)Gal(b1-4)GlcNAc(b1-2)Man(a1-3)]Man(b1-4)GlcNAc(b1-4)[Fuc(a1-6)]GlcNAc. An outline of the steps:
as §1

In assay [19] the target is Gal(b1-4)GlcNAc(b1-3)Gal(b1-4)GlcNAc(b1-3)Gal(b1-4)GlcNAc. An outline of the steps: as §1
The target in assay [20] is Gal(b1-4)GlcNAc(b1-3)Gal(b1-4)GlcNAc(b1-3)Gal(b1-4)GlcNAc(b1-2)Man(a1-3)[Gal(b1-4)GlcNAc(b1-3)Gal(b1-4)GlcNAc(b1-3)Gal(b1-4)GlcNAc(b1-2)Man(a1-6)]Man(b1-4)GlcNAc(b1-4)GlcNAc. An outline of the steps: as §1
Assay [21] concerns the target Gal(b1-4)GlcNAc(b1-3)Gal(b1-4)GlcNAc(b1-3)Gal(b1-4)GlcNAc(b1-2)Man(a1-3)[Gal(b1-4)GlcNAc(b1-3)Gal(b1-4)GlcNAc(b1-3)Gal(b1-4)GlcNAc(b1-2)Man(a1-6)]Man(b1-4)GlcNAc(b1-4)[Fuc(a1-6)]GlcNAc. An outline of the steps:
as §1

Assay [22] deals with Gal(b1-4)GlcNAc(b1-3)Gal(b1-4)GlcNAc(b1-3)Gal(b1-4)GlcNAc(b1-2)[Gal(b1-4)GlcNAc(b1-3)Gal(b1-4)GlcNAc(b1-3)Gal(b1-4)GlcNAc(b1-6)]Man(a1-6)[Gal(b1-4)GlcNAc(b1-3)Gal(b1-4)GlcNAc(b1-3)Gal(b1-4)GlcNAc(b1-2)Man(a1-3)]Man(b1-4)GlcNAc(b1-4)[Fuc(a1-6)]GlcNAc. A digest of the protocol: as §1

The list shows a part of the results.

B1: HA-11100 (Pseudomonas aeruginosa), Q02G51_PSEAB (protein)
chain: QFNPNEIKISQQGKTTLIDQSTQRAIINWKGFDVSADEAVRFNQPGVTSSTLNRVTAGQESVIAGRISAPGQVIIYNSNGVVFSGSAKVDVGSLITTTANISDEHFRQGKLIFDQPGNPDARIVNDGSISVAEKGLAAFVAPSVANNGVINARLGTVAMAAGNAATIDLYG
B1: the “glycan array binding signal (z-score)” value is -0.042 in assay [1]; 0.346 in assay [2]; -0.326 in assay [3]; 0.331 in [4]; 0.248 in assay [5]; 3.28 in assay [6]. Further, the “glycan array binding signal (z-score)” value in assay [7] was 7.59; in [8], 0.518; in assay [9], -0.223; in assay [10], 0.438; in assay [11], -0.34; in assay [12], -0.236. For the same molecule, the “glycan array binding signal (z-score)” value was -0.184 in assay [13]; -0.048 in [14]; 0.193 in assay [15]; 10.5 in [16]; 5.77 in assay [17]; 2.36 in [18]. For the same molecule, the “glycan array binding signal (z-score)” value is -0.42 in assay [19], 1.48 in [20], 0.632 in [21] and 0.663 in assay [22].

The values above are taken from the supplement of paper PMC8728848.
